We go through 83 variants from the RNAGym collection of RNA variant scans (doi:10.1093/nar/gkz1192).

Read counts are not given, so values of variants with three or more changes are uncertain.

B1: CPEB3 Ribozyme (parent)
chain: UAACAGGGGGCCACAGCAGAAGCGUUCACGUCGCAGCCCCUGUCAGAUUCUGGUGAAUCUGCGAAUUCUGCUGUAUAUCUC

The variants in this series derive from B1. Put plainly: self-cleavage, relative activity (ratio to wild type); higher = more cleavage; in vitro, sequencing. In short, it runs like this: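 Barcoded CPEB3 ribozyme mutants, produced by rounds of error-prone PCR, self-cleaved while being transcribed with T7 RNA polymerase for 5 hours at 37°C and during a subsequent 15 min DNase I step before EDTA was added. Sequencing of template-switched cDNA on Illumina gave cleaved and total reads, and DNA sequencing assigned barcodes to variants. Each variant's relative activity is its cleaved/total read fraction divided by the unmutated ribozyme's fraction, averaged across three batches. A variant needed a minimum of 5 reads.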
As for C4U U26A C34G, the self-cleavage stood at 0.57.
Under C4A G7U A35C U58C stands 0.28.
Under A3U A20G A45U U80C stands 0.23.
Turning to A5C A18U U80A, the self-cleavage stood at 0.67.
A5C G6A A13G A20G A21U C44U U60C: the self-cleavage was found to be 0.07.
A3U A13G C17A U26C U43G U60A C68A: the self-cleavage turned out to be 0.02.
Consider A3U A18U U48C, for which the self-cleavage was determined as 0.18.
For the variant A5C A20G U66C U67C, the self-cleavage came out at 0.79.
For the variant C4U U26C A64G U78C, the self-cleavage stood at 0.28.
For A3G U26C U66C U74C U80C, the self-cleavage was determined as 0.03.
Under C4A A20U U74A stands 0.4; under C4G U26A U41C U43A C44A A64G, 0.08; under A5C A13G U25C C39U A45U A47G U80C, 0.09.
Under C4U A13U U54C A65G stands 1.02.
For C4U G16A U31C A35G U58A G73A, the self-cleavage was 0.57.
C4U U25G C32G U69A U78C: the self-cleavage amounted to 0.09.
Consider A3U U41A U54A, for which the self-cleavage was determined as 0.28.
Under A3U A20G U26A G63C G73U stands 1.21; under A3G U26A C40U U60C A77C, 0.17; under A3G U31C A35U A56G U72C, 0.1.
A3U U51C U69C: the self-cleavage came out at 0.67.
Under C4U U31A A56G U80C C81A stands 1.05; under A3G U69A U76G, 0.42; under A3U A21G A28U A77G, 0.75.
A3U U25G U26A A45U: the self-cleavage came out at 0.3.
As for A3U C37U U54C, the self-cleavage is 0.42.
Under C4A U31C A47G A56G stands 0.53.
A5C A57G U58G U66G: the self-cleavage was determined as 0.1.
Consider A3G U31C U58C A77G, for which the self-cleavage was 0.22.
Take A3G U54C U69A A75U: the self-cleavage came out at 0.67.
C4U A21U U51G U78C: the self-cleavage came out at 0.38.
Under A3G U31C A64G U72A G73U stands 0.94.
Under A3G U25G U41C stands 0.33; under A3G U41A U43C, 0.37.
Under A3U C14A A45G stands 1.11; under C4U A28C A35G C38U U54A U80C, 1.14.
Regarding A3U A21G U69C, the self-cleavage is 0.34.
As to A3G U41A C62U A77C, the self-cleavage came to 0.12.
Take A3U A13G G53A A65U: the self-cleavage is 0.32.
As for A5C C44A U54C A65G, the self-cleavage is 0.07.
Under A3U U25A A35U U60G stands 0.21.
A3G U31C U43C A64G U80C: the self-cleavage amounted to 0.04.
Under C4U G8A A18U A35G stands 0.13; under C4U A28U U80C, 1.16.
A3U A15G A20G A21G U43A U69A: the self-cleavage was found to be 0.09.
Under A3U A13G A15U A45G A47G stands 0.29; under A3U U31C A35G U54C U58C A64G, 0.18; under A3G U43G U69A, 0.13.
With A3U C12G A28U U31C U69G, the self-cleavage turned out to be 0.16.
With A3G U25C U69A, the self-cleavage worked out at 0.19.
Consider C4U A28U U49C U66C, for which the self-cleavage was 0.18.
For C4U A15G U41A U80A, the self-cleavage came out at 0.56.
Under C4A A5G A20G U25C U26C U43C stands 0.54.
Under A3U A21G A35G C68A A75G U80C C81U stands 0.81; under A3G U41C U69C C71G, 0.28; under A3G U31C A45G U49C C62U U80A, 0.13.
Regarding A3G U26C C40U, the self-cleavage was determined as 0.44.
As for A3G U25G U41C A64G, the self-cleavage was found to be 0.28.
Take A3U U31A U43A U51A A56G U69C U80C: the self-cleavage turned out to be 0.15.
For the variant A5C A35G A45G A64G U72C, the self-cleavage was 1.25.
Consider A3U A15U U41C U74C, for which the self-cleavage turned out to be 0.65.
Under A3U G8U A13G stands 0.43; under A3G U43A A57G, 0.99; under C4G A15U A35U U43A A47G U60A, 0.14.
Under A3U A13U U41A stands 0.22; under A3G U25C A75G, 0.47; under A5C G6C U25C U31C U60A, 0.08.
Under A3G U69C U78C stands 0.74; under A3G U41A U43C U76A A77G, 0.38; under A5C A18G C29G U67C, 0.15.
As for C4A A18G A35G U43C U78C, the self-cleavage is 0.62.
Under A3G U25C U51C U67C stands 0.27; under A3G U48C U51G, 0.41; under A3U U51C U78A, 0.98.
Under A3U A21G U51C A56G stands 0.35; under A3U U25C U51A G63A, 0.37.
Under C4G U41C A64U stands 0.43.
On to C4U A13G U51A, for which the self-cleavage is 1.03.
Take C4U U25C C29U A45G: the self-cleavage is 0.28.
Under A3G U41C U80C stands 0.97; under C4U G30A A35G A57G U66C U76A, 0.12; under A3U A21G U51A C71U, 0.33.
On to A3G U41C U51A A64U, for which the self-cleavage stood at 0.38.
